# Assay results reported in PubChem BioAssay AID463173 (ICCB-Longwood Screening Facility, Harvard Medical School, 2010).
# In all, about 52,000 compounds went through this assay and about 1,700 (3.3%) were called active. Cut-off read from the data, not from the text of the source: active = survival mostly below about 52% (no sharp cut-off); inactive = mostly above about 56%. Some of the results follow.
# Tested on: Wild type
# Assay: S. aureus survival, RN4220 and DeltatarO strains – OD600, teichoic acid synthesis inhibitors, primary screen (AID 463173)
# Details: S. aureus RN4220 wild type/DeltatarO growth, OD600, 18 h, stronger effect = lower value, screened at 18.75 µg/mL (by protocol)
row,SMILES,survival
1,Cc1ccc(N(CC(=O)Nc2cccc(Cl)c2)S(=O)(=O)c2cccs2)cc1,inactive: 123%
2,Cc1ccc2c(c1)N(CCC(=O)NCc1ccccc1Cl)C(=O)CO2,inactive: 75%
3,O=c1c2oc3ccccc3c2n(Cc2ccccc2F)c(=O)n1Cc1ccccc1,inactive: 91%
4,Cc1ccc2onc(CC(=O)Nc3ccc(C(C)C)cc3)c2c1,inactive: 85%
5,O=C(Nc1ccc2c(c1)oc1ccccc12)C1CC1,inactive: 109%
6,COc1cccc(CNC(=O)c2cc3c(=O)oc4ccc(C)cc4c3s2)c1,inactive: 89%
7,CC(=O)N1CCC(N(Cc2ccc(C)o2)C(=O)Nc2ccc(C)cc2)CC1,inactive: 70%
8,COc1ccc(-c2nnc(SCc3cccc(Cl)c3)o2)cc1,active: 13%
9,Cn1c(=O)[nH]c(=O)c2c1nc(NCCc1ccccc1)n2Cc1ccc(F)cc1,inactive: 76%
10,COc1ccc(NC(=O)c2c(NC(=O)c3ccc(Br)cc3)sc3c2CCCC3)cc1,inactive: 157%
11,CCOc1ccc(OCC)c(NS(=O)(=O)c2ccc(-c3coc(C)n3)cc2)c1,inactive: 80%
12,Cn1cc(S(=O)(=O)N2CCOCC2)cc1C(=O)Nc1ccc(Cl)c(C(F)(F)F)c1,inactive: 59%
13,Cc1cc(NC(=O)Nc2nnc(N(C)Cc3ccccc3)s2)ccc1Br,inactive: 95%
14,Cc1ccc(O)c(NC(=O)c2cc(-c3ccccc3O)no2)c1,inactive: 91%
15,COc1cc(NC(=O)c2cn(C3CCCC3)c(=O)c3c2c2ccccc2n3C)cc(OC)c1OC,inactive: 80%
16,Cn1cnc2c(=O)oc3ccc(S(=O)(=O)Nc4ccc(F)cc4)cc3c21,inactive: 72%
17,CCOc1ccc2nc(NC(=O)c3nc(SC)ncc3Cl)sc2c1,inactive: 88%
18,CCOc1ccccc1NC(=O)Cc1noc2ccc(C)cc12,inactive: 82%
19,CCOc1ccc(CNS(=O)(=O)c2ccc(-c3coc(C)n3)cc2)cc1,inactive: 115%
20,COc1ccc(N2CCN(CCCNC(=O)Cn3c(-c4cccs4)cc4ccccc43)CC2)cc1,inactive: 86%
21,COc1ccc2nc(N(Cc3cccnc3)C(=O)C3CCCCC3)sc2c1,inactive: 74%
22,COc1cccc(C2C(C(=O)Nc3ccc(C)cc3C)=C(C)Nc3nc4ccccc4n32)c1OC (centres undefined),inactive: 76%
23,CC1(C)C(=O)N(CC(=O)Nc2ccc(Br)cc2F)c2ccccc21,inactive: 67%

row,SMILES,survival
1,CCOC(=O)c1cc(S(=O)(=O)N2CCN(c3ccccc3F)CC2)[nH]n1,active: -6%
2,Cc1nc2ccc(S(=O)(=O)N(C)CC(=O)Nc3cccc(C(F)(F)F)c3)cc2s1,inactive: 88%
3,CCCCN(CC)CCCNC(=O)Nc1sc2nc3n(c(=O)c2c1C)CCC(C)CC3 (centres undefined),inactive: 137%
4,CC(NC(=O)C1CCN(c2nc3ccccc3nc2C(F)(F)F)CC1)c1ccccc1 (centres undefined),inactive: 32%
5,CCCCNC(=O)c1cccc(-n2c(C)nc3cccnc32)c1,inactive: 73%
6,Fc1ccc2c(c1)-c1nc(-c3ccccc3)cc(-c3ccccc3)c1CO2,inactive: 72%
7,CCN(CC)S(=O)(=O)N1CCN(S(=O)(=O)N2CCOCC2)CC1,inactive: 118%
8,Cc1c(NC(=O)Nc2ccccc2C(F)(F)F)sc2nc3n(c(=O)c12)CCC(C)CC3 (centres undefined),inactive: 92%
9,COc1ccc(N(C(=O)c2cccc(C)c2)S(=O)(=O)c2ccc(Cl)cc2)cc1,inactive: 78%
10,CC(C)CCNC(=O)c1cnc2sc(N3CCCCC3)nn2c1=O,inactive: 92%
11,CCOc1cc(C(=O)N2CCn3c4c(c5cc(C)ccc53)CCCC42)cc(OCC)c1OCC (centres undefined),inactive: 67%
12,C=CCN1C(=O)C2C(C(=O)NCc3ccccc3)C3C=CC2(O3)C1C(=O)NC(C)(C)C (centres undefined),inactive: 100%
13,Cn1c(=O)n(C)c2cc(/C=C(\C#N)C(N)=C(C#N)C#N)ccc21,inactive: 118%
14,O=C(CCc1nc(-c2cccs2)no1)Nc1cccc([N+](=O)[O-])c1,inactive: 44%
15,CCOc1ccc(-c2ccc(NS(=O)(=O)c3ccc(C)cc3)cc2)nn1,inactive: 77%
16,Cc1cccn2c(=O)c(/C=C(\C#N)c3nc4ccccc4[nH]3)c(Oc3ccc(C(C)(C)C)cc3)nc12,inactive: 83%
17,COc1ccc(CCCc2nnc(SCC(=O)Nc3ccc(C)cc3)o2)cc1,inactive: 72%
18,COc1ccc(C(=O)c2ccc(OC)cc2OC)c(OC)c1,inactive: 114%
19,COc1ccc(CN(CCN2CCOCC2)C(=O)c2cc3sccc3n2Cc2ccccc2)cc1,inactive: 151%
20,Cc1ccc(C)c(N2CCN(C(c3ccccc3)c3nnc(-c4ccccc4F)o3)CC2)c1 (centres undefined),inactive: 53%
21,Cc1ccc(C)c(N2CCN(CCCNC(=O)c3cnn(-c4ccccc4Cl)c3C3CCN(C(=O)OC(C)(C)C)CC3)CC2)c1,inactive: 81%
22,Cc1ccc(C(=O)Nc2sc3c(c2C(=O)NCc2ccco2)CCC(C(C)(C)C)C3)cc1 (centres undefined),inactive: 70%
23,O=C(NCc1ccc(F)cc1)c1cc2n(n1)CCCN(Cc1ccc(F)cc1)C2=O,inactive: 86%

row,SMILES,survival
1,Cc1ccc(OCC(=O)OCc2cc(=O)n3nc(-c4cccs4)sc3n2)cc1C,inactive: 73%
2,Cc1cc(C)c(NC(=O)Cn2c(=O)n(-c3ccc(CC(=O)NCC4CCCO4)cc3)c(=O)c3ccccc32)c(C)c1 (centres undefined),inactive: 110%
3,Cc1ccc(-c2nc3n(n2)C(=O)CC(c2ccc(Cl)cc2)S3)cc1 (centres undefined),inactive: 89%
4,Cc1ccc(C(=O)Nc2ccc(NC(=O)c3cccs3)cc2)cc1C,inactive: 88%
5,Cc1cc(Cl)ccc1NC(=O)C(=O)NCc1ccco1,inactive: 130%
6,CCOc1ccc(Sc2cc(C(=O)NC(C)c3ccccc3)c3ccccc3n2)cc1 (centres undefined),inactive: 83%
7,Cc1ccsc1CN(C(=O)COc1ccc(Br)cc1)C1CCS(=O)(=O)C1 (centres undefined),inactive: 90%
8,Cc1ccc(OCC(=O)Nc2cc3nn(-c4ccccc4)nc3cc2C)cc1,inactive: 91%
9,CCOc1ccccc1NC(=O)Cn1cc(C(=O)c2cccc(OC)c2)c(=O)c2ccc(C)nc21,inactive: 73%
10,O=C(Cn1c(=O)c2cccn2c2ccccc21)NCCc1ccccc1,inactive: 89%
11,COc1ccc(NC(=O)Cn2c(SCc3cc(C)ccc3C)nc3ccncc32)c(OC)c1OC,inactive: 75%
12,Cc1c(CCNC(=O)c2ccc(Br)o2)sc2nc(-c3ccc(F)cc3)nn12,inactive: 75%
13,COc1ccc2c(CNCc3cccs3)c(C(=O)O)n(Cc3ccccc3)c2c1,inactive: 84%
14,O=C(CSc1nnc(CNC(=O)c2cccc(F)c2)n1-c1ccccc1)Nc1ccccc1F,inactive: 65%
15,Cc1ccc(NC(=O)Cn2cnc3sc(C(=O)O)c(C)c3c2=O)cc1Cl,inactive: 80%
16,CCN1CCN(c2nc3c(S(=O)(=O)c4ccc(Br)cc4)nnn3c3ccsc23)CC1,inactive: 116%
17,COc1cc(NC(=O)CN(c2ccc(C)cc2)S(=O)(=O)c2cccc3nonc23)cc(OC)c1,inactive: 79%
18,CCc1cccc(NC(=O)CSC2=Nc3ccccc3N=C(c3ccc(F)cc3)C2)c1,inactive: 131%
19,CCOc1ccccc1C(=O)Nc1ccc(S(=O)(=O)Nc2nc(C)cc(C)n2)cc1,inactive: 94%
20,COc1ccc2c(c1)c1c(c(=O)n(Cc3ccccc3)c(=O)n1CC(=O)NCc1ccccc1Cl)n2C,inactive: 76%
21,O=C(c1c(F)cccc1F)N1CCCC(c2nc(-c3cccs3)no2)C1 (centres undefined),inactive: 109%
22,Fc1ccc(-c2noc3ncnc(NCCc4ccccc4)c23)cc1,inactive: 64%
23,CCOc1ccc(-c2nonc2NC(=O)COc2c(C)cc(C)cc2C)cc1OCC,inactive: 110%

row,SMILES,survival
1,CCCCCn1c(C(C)NC(=O)c2ccccc2)nc2ccccc21 (centres undefined),inactive: 77%
2,COc1ccc(Nc2nc(-c3ccc(C)cc3)nc3ccccc23)c(OC)c1,inactive: 70%
3,CCc1nn(CC(=O)NCCc2ccc(OC)cc2OC)c(=O)c2cc3c(OC)cccc3n12,inactive: 98%
4,CCOc1cc(CNC(=O)C2COc3ccccc3C2)cc(OCC)c1OCC (centres undefined),inactive: 73%
5,COc1ccc(-c2nc(C)c(CCNC(=O)C(=O)Nc3ccccc3OC)s2)cc1,inactive: 67%
6,O=C(NC1CCN(Cc2nnnn2Cc2ccc3c(c2)OCO3)CC1)c1ccccc1F,inactive: 90%
7,O=C(NCCc1ccccc1Cl)c1ccc(Cn2c(=O)c3cccn3c3cccnc32)cc1,inactive: 77%
8,Cc1ccccc1N1CC(c2nc3ccccc3n2CCC2CCCCC2)CC1=O (centres undefined),active: 12%
9,COc1ccc(CCn2cc3c(c2-c2ccc(Br)cc2)c(=O)n(C)c(=O)n3C)cc1OC,inactive: 84%
10,Cc1ccc(C(C)C)c(OCC(=O)NCC2(N(C)C)CCCCC2)c1,inactive: 98%
11,Cc1ccccc1C(=O)n1nc(-c2ccco2)nc1NCc1ccc(Cl)cc1,inactive: 87%
12,Cc1ccc(C)c(N2CCN(C(=O)C3CCCN(S(=O)(=O)c4ccc5c(c4)oc(=O)n5C)C3)CC2)c1 (centres undefined),inactive: 85%
13,Cc1ccc(-c2nnc(SCc3ccccc3C)o2)cc1,active: -4%
14,CCc1ccccc1NC(=O)c1c(NC(=O)c2ccccc2)sc2c1CCCC2,inactive: 60%
15,CCOC(=O)C1CCC(CN(Cc2cccc(Br)c2)S(=O)(=O)c2ccc(C)cc2)CC1 (centres undefined),inactive: 127%
16,CCc1ccc(C(=O)c2cn(CC(=O)Nc3ccc4c(c3)OCO4)c3cc(OC)c(OC)cc3c2=O)cc1,inactive: 107%
17,COc1ccc(S(=O)(=O)Nc2ccc3c(c2)N(C(C)=O)CCC3)cc1F,inactive: 58%
18,O=C(COc1ccc(Cl)cc1)Nc1ccc(-c2nc3ccccc3s2)c(O)c1,inactive: 74%
19,COc1ccc(OC)c2sc(N3CCN(C(=O)C(C)(C)C)CC3)nc12,inactive: 69%
20,COc1cc(-c2cc(OC)c3c(C)oc(C)c3c(=O)c2)ccc1OC(=O)c1ccccc1Cl,inactive: 94%
